Measured values: the supplement of paper PMC4967469

What follows are cell lines tested with Cn1cc(C2=C(c3cn(C4CCN(Cc5ccccn5)CC4)c4ccccc34)C(=O)NC2=O)c2ccccc21 [LY317615] (assay: Viability of human cancer cell lines after 72 h of drug (GDSC screen)). Conditions: top dose inferred.
Protocol: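 Human cancer cell lines in 384-well plates, medium with 10% serum, drug for 72 h over a 256-fold dose range (nine 2-fold or five 4-fold steps up to the top dose). Adherent lines were fixed and stained with the nucleic acid dye Syto60, suspension lines read with resazurin; signal relative to control wells, capped at 0 and 100%. One two-parameter sigmoid per drug and line, fitted in a mixed model over all curves with the slope shared within a line.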

For “KYM-1 (rhabdomyosarcoma, adherent, top dose 20 µM)”, which AUC is on record?
Its AUC is 0.991.

And the IC50?
The IC50 was over 20 µM.

With “TGBC11TKB (stomach, adherent, top dose 20 µM)” as the cell line, how does the AUC read?
The AUC was 0.974.

And the IC50?
Its IC50 is over 20 µM.

With KGN (ovary, adherent, top dose 20 µM) as the cell line, how does the AUC read?
The AUC was 0.942.

And the IC50?
The IC50 was over 20 µM.

“PA-TU-8988T (pancreas, adherent, top dose 20 µM)” was tested. Which AUC did it give?
Its AUC is 0.963.

And the IC50?
The IC50 was over 20 µM.

“PANC-03-27 (pancreas, adherent, top dose 20 µM)” was tested. Which AUC did it give?
The AUC was 0.729.

What about the IC50 of the same cell line?
The IC50 was 5.31 µM.

Which results are given for “COR-L95 (small cell lung carcinoma, adherent, top dose 20 µM)”?
AUC: 0.9; IC50: > 20 µM

How did the AUC turn out when “WM1552C (melanoma, adherent, top dose 20 µM)” was run?
The AUC was 0.534.

And the IC50?
Its IC50 is 1.55 µM.

Which AUC does the source give for “OE33 (oesophagus, adherent, top dose 20 µM)” here?
Its AUC is 0.936.

What about the IC50 of the same cell line?
The IC50 was over 20 µM.

What does the source list for “RPMI-6666 (Hodgkin lymphoma, suspension, top dose 20 µM)”?
AUC: 0.562; IC50: 1.92 µM

How did the AUC turn out when “PC-14 (lung adenocarcinoma, adherent, top dose 20 µM)” was run?
Its AUC is 0.491.

What about the IC50 of the same cell line?
The IC50 was 1.19 µM.

What does the source list for “OVKATE (ovary, adherent, top dose 20 µM)”?
AUC: 0.731; IC50: 9.02 µM

Which AUC does the source give for “NCI-H1781 (lung adenocarcinoma, adherent, top dose 20 µM)” here?
The AUC was 0.933.

What about the IC50 of the same cell line?
Its IC50 is over 20 µM.

For “ECC10 (stomach, suspension, top dose 20 µM)”, which AUC is on record?
The AUC was 0.974.

And the IC50?
The IC50 was over 20 µM.

“SW1271 (small cell lung carcinoma, adherent, top dose 20 µM)” was tested. Which AUC did it give?
The AUC was 0.984.

And the IC50?
The IC50 was over 20 µM.

Which results are given for “SNB75 (glioma, adherent, top dose 20 µM)”?
AUC: 0.904; IC50: > 20 µM

For “D-247MG (glioma, adherent, top dose 20 µM)”, which AUC is on record?
Its AUC is 0.965.

And the IC50?
The IC50 was over 20 µM.

Which AUC does the source give for “H2461 (mesothelioma, adherent, top dose 20 µM)” here?
Its AUC is 0.756.

And the IC50?
The IC50 was 8.42 µM.

With “CMK (acute myeloid leukaemia, suspension, top dose 20 µM)” as the cell line, how does the AUC read?
Its AUC is 0.821.

What about the IC50 of the same cell line?
Its IC50 is 9.34 µM.

With “U-698-M (B-cell leukaemia, suspension, top dose 20 µM)” as the cell line, how does the AUC read?
The AUC was 0.901.

What about the IC50 of the same cell line?
The IC50 was over 20 µM.

What does the source list for “ESO51 (oesophagus, semi-adherent, top dose 20 µM)”?
AUC: 0.764; IC50: 10.2 µM

Which results are given for “CW-2 (large intestine, adherent, top dose 20 µM)”?
AUC: 0.876; IC50: > 20 µM

Which AUC does the source give for “OSC-20 (head and neck, adherent, top dose 20 µM)” here?
The AUC was 0.846.

What about the IC50 of the same cell line?
The IC50 was 18.9 µM.

For “SCC90 (head and neck, adherent, top dose 20 µM)”, which AUC is on record?
The AUC was 0.886.

And the IC50?
Its IC50 is over 20 µM.

A172 (glioma, adherent, top dose 20 µM) was tested. Which AUC did it give?
Its AUC is 0.942.

What about the IC50 of the same cell line?
The IC50 was over 20 µM.

Which AUC does the source give for “BB30-HNC (head and neck, adherent, top dose 20 µM)” here?
Its AUC is 0.871.

And the IC50?
The IC50 was 18.2 µM.

“JHU-022 (head and neck, adherent, top dose 20 µM)” was tested. Which AUC did it give?
Its AUC is 0.793.

And the IC50?
The IC50 was 12 µM.

“SNG-M (endometrium, adherent, top dose 20 µM)” was tested. Which AUC did it give?
Its AUC is 0.561.

And the IC50?
Its IC50 is 1.82 µM.

For “NCI-H1703 (lung adenocarcinoma, adherent, top dose 20 µM)”, which AUC is on record?
Its AUC is 0.818.

And the IC50?
The IC50 was 14.5 µM.

Which AUC does the source give for TK10 (kidney, adherent, top dose 20 µM) here?
The AUC was 0.649.

What about the IC50 of the same cell line?
Its IC50 is 3.55 µM.

“MFE-280 (endometrium, adherent, top dose 20 µM)” was tested. Which AUC did it give?
The AUC was 0.943.

And the IC50?
The IC50 was over 20 µM.

Which AUC does the source give for “SJRH30 (rhabdomyosarcoma, adherent, top dose 20 µM)” here?
Its AUC is 0.894.

And the IC50?
Its IC50 is over 20 µM.

With “HPAF-II (pancreas, adherent, top dose 20 µM)” as the cell line, how does the AUC read?
Its AUC is 0.801.

What about the IC50 of the same cell line?
Its IC50 is 13.4 µM.

Which results are given for “NKM-1 (acute myeloid leukaemia, suspension, top dose 20 µM)”?
AUC: 0.57; IC50: 1.96 µM

ACHN (kidney, adherent, top dose 20 µM) was tested. Which AUC did it give?
The AUC was 0.878.

And the IC50?
The IC50 was over 20 µM.

A lower IC50 marks a more sensitive line; a fit beyond the top or the lowest dose is shown as a bound at that dose. AUC is the area under the same curve over the 256-fold range up to the top dose, as a fraction: 1 means no effect, lower means more sensitive. An inferred top dose comes from the curve model; the source does not state it.
